Read counts are not given, so values of variants with three or more changes are uncertain.
B1: CPEB3 Ribozyme (parent)
chain: UAACAGGGGGCCACAGCAGAAGCGUUCACGUCGCAGCCCCUGUCAGAUUCUGGUGAAUCUGCGAAUUCUGCUGUAUAUCUC

Variants of: B1
Assay: self-cleavage, relative activity (ratio to wild type); higher = more cleavage; in vitro, sequencing
Method in brief: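 Barcoded CPEB3 ribozyme mutants, produced by rounds of error-prone PCR, self-cleaved while being transcribed with T7 RNA polymerase for 5 hours at 37°C and during a subsequent 15 min DNase I step before EDTA was added. Sequencing of template-switched cDNA on Illumina gave cleaved and total reads, and DNA sequencing assigned barcodes to variants. Each variant's relative activity is its cleaved/total read fraction divided by the unmutated ribozyme's fraction, averaged across three batches. A variant needed a minimum of 5 reads.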

Question: With UAACAGGGGGCCACAGCGGAAGCGUUCACGUCGCAUCCCCUGUCAGAUUCUGGUGAAUCUCCGAGUUCUGCUGUAUAUCUC [A18G G36U G61C A65G] as the variant, how does the self-cleavage read?
Answer: 0.06

Question: For UAACAGGGGGCCACAGCGGAAGCGUUCACGUCUCCGCCCCUGUCAGAUUCUGGUGAAUCUGCGAGUUCUGCUGUAUAUCUC [A18G G33U A35C A65G], which self-cleavage is on record?
Answer: 0.06

Question: Which self-cleavage does the source give for UAACAGGGGGCCACAGCGGAAGCGUUCACGUCGCAGCCCCUGUCAGAUUCUGGUCAAUCUGCGAAUUCUGCCGUAUACCUC [A18G G55C U72C U78C] here?
Answer: 0.28

Question: Which self-cleavage does the source give for UAACAGGGGGCCACAGCGGAAGCGGUCACGUCGCAGCCCCUGUCAGAUUCUGGCGAAUCUGCGAAUUCUGCUGUAUAUCCC [A18G U25G U54C U80C] here?
Answer: 0.12

Question: Which self-cleavage does the source give for UAACAGGGGGCCACAGCGGAAGCUUUCACGUCGCAGCCCCUGUCAGAUUCUGGUGAAUCUGCGAAUUCUGCAGUAUAUCCC [A18G G24U U72A U80C] here?
Answer: 0.26

Question: With UAACAGGGGGCCACAGCGGAAGCGUUCACGUCUCAGCCCCUGUCUGAUUCUGGUGAAUCUGCGUAUUUUGCUGUAUAUCUC [A18G G33U A45U A64U C68U] as the variant, how does the self-cleavage read?
Answer: 0.12

Question: For UAACAGGGGGCCACAGCGGAAGCGCUCACGUCGCAGCCCCUGUCAGAUUCUGGUGAAUCUGCGAAUCCUGCUGUAUAUCCC [A18G U25C U67C U80C], which self-cleavage is on record?
Answer: 0.28

Question: For UAACAGGGGGCCACAGCGGAAGCGCUCACGUCGCAGCCCCUGUCAGAUUCUGGUGAAUCUGCGUAUUCUGCUGUAUAUCUC [A18G U25C A64U], which self-cleavage is on record?
Answer: 0.17

Question: For UAACAGGGGGCCACAGCGGAAGCGUUCACAUCGCAGCCCCAGUCAGAUCCUGGUGAAUCUGCGAAUUCUGCUGUAUAUCUC [A18G G30A U41A U49C], which self-cleavage is on record?
Answer: 0.34

Question: With UAACAGGGGGCCACAGCGGAAGCGCUCACGUCGCAGCCACUGUCAGAUUCUGGUGAAUCUGCGAAUUCUGCUGUAUAUCUC [A18G U25C C39A] as the variant, how does the self-cleavage read?
Answer: 0.23

Question: Which self-cleavage does the source give for UAACAGGGGGCCACAGCGGAAGCGUUCACAUCGCAGCCCGUACCAGAUUCUGGUGAAUCUGCGAAUUCUGCUGUAUAUCUC [A18G G30A C40G G42A U43C] here?
Answer: 0.18

Question: For UAACAGGGGGCCACAGCGGAAGCGUUCACGUCGCAGCCCCUUUCAGAUUCUGGUGAGUCUGCGAGUUCUGCUGUAUAUCUC [A18G G42U A57G A65G], which self-cleavage is on record?
Answer: 0.09

Question: With UAACAGGGGGCCACAGCGGAAGCGUUCACUUCGCAGCCCCUGUCAGAUUCUGGUGAAUCUGCGAAUUCAGCUGUAUAUCUC [A18G G30U U69A] as the variant, how does the self-cleavage read?
Answer: 0.14

Question: For UAACAGGGGGCCACAGCGGAAGCGCUCACGUCGCAGCCCCUGCCAGAUUCUGGUGAAUCAGCGAAUUCCGCUGCAUAUCUC [A18G U25C U43C U60A U69C U74C], which self-cleavage is on record?
Answer: 0.07

Question: Which self-cleavage does the source give for UAACAGGGGGCCACAGCGGAAGCGCUCACGUCGCAGCUCCUGUCAGAUUCAGGUGAAUCUGCGAAUUCUGCUGUAUAUCUC [A18G U25C C38U U51A] here?
Answer: 0.18

Question: With UAACAGGGGGCCACAGCGGAAGCGUUCACGUCGCAACCCCUGUCAGAUUCUGGUGAAUCUGCGAACCCUGCUGUAUAUCUC [A18G G36A U66C U67C] as the variant, how does the self-cleavage read?
Answer: 0.17

Question: For UAACAGGGGGCCACAGCGGAAGCGCUCGCGUCGCAGCCCCUGUCAGAUUCUGGUGAAUCUGCGAAUUCUGCUGUAUAUCUC [A18G U25C A28G], which self-cleavage is on record?
Answer: 0.46

Question: Which self-cleavage does the source give for UAACAGGGGGCCACAGCGGAAGCGCUCACGUCGCGGCCCCUGUCAGAUUCUGGUGAAUCUGCGAAUUCUGCUGUAUAUCUC [A18G U25C A35G] here?
Answer: 0.39

Question: With UAACAGGGGGCCACAGCGGAAGCGCUCACGUCGCAGCCCCAGUCAGAUUCGUGUGGUUCUGCGAAUUCUGCUGUAUAUCUC [A18G U25C U41A U51G G52U A56G A57U] as the variant, how does the self-cleavage read?
Answer: 0.2

Question: Which self-cleavage does the source give for UAACAGGGGGCCACAGCGGAAGCGCUCACGCCGCAGCCCCCGUCAGAUUCUGGUGAAUCCGCGAAUUCUGCUGUAUAACUC [A18G U25C U31C U41C U60C U78A] here?
Answer: 0.25

Question: For UAACAGGGGGCCACAGCGGAAGCGUUCACGUCGCAGCCCCUGUCACAUUCUGGUGGAUCUGCGAACUCUGCUGUAUAUCUC [A18G G46C A56G U66C], which self-cleavage is on record?
Answer: 0.21

Question: With UAACAGGGGGCCACAGCGGAAGCGCUCACGUCGCAGCCCCUGCCAGAUUCUGGUGAACCUGCGAAUUCUGCUGUAUAUCUC [A18G U25C U43C U58C] as the variant, how does the self-cleavage read?
Answer: 0.06

Question: Which self-cleavage does the source give for UAACAGGGGGCCACAGCGGAAGCCUUCACGUCGCAGCCCCUGUCAGAUUCAGGUGAAUCUGCGAAUUCUGCUGUAUAUCUC [A18G G24C U51A] here?
Answer: 0.21

Question: Which self-cleavage does the source give for UAACAGGGGGCCACAGCGGAAGCUUUCACGUCGCGGCCCCUGUCAGAUUCUGGUGAAUCUGCGAAUUCUGCCGUAUAUCCC [A18G G24U A35G U72C U80C] here?
Answer: 0.13

Question: For UAACAGGGGGCCACAGCGGAAGCGAUCACGUCGCAGCCCCUGUCAGAUUCAGGUGAAUCUGCGAAUUCUGCUGUAUAUCUC [A18G U25A U51A], which self-cleavage is on record?
Answer: 0.08

Question: With UAACAGGGGGCCACAGCGGAAGCGCUCACGCCGCAGCCCCUGUCAGAUUCUGGUGAAUCUGCGAAUUCUGCUGUAUAUCUC [A18G U25C U31C] as the variant, how does the self-cleavage read?
Answer: 0.21

Question: With UAACAGGGGGCCACAGCGGAAGCGCUCACGUCGCAGCCCCUGUCAGACUCUGGUGAAUCUGCGAAUUCUGCUGUAAAUCUC [A18G U25C U48C U76A] as the variant, how does the self-cleavage read?
Answer: 0.08

Question: For UAACAGGGGGCCACAGCGGAAGCGUUCACGUCACAGCCCCUGACAGAUUCUGGUGAAUCUGCGAAUUCUGCUGAAUAUCUC [A18G G33A U43A U74A], which self-cleavage is on record?
Answer: 0.07

Question: For UAACAGGGGGCCACAGCGGAAGCGCUCACGUCGCAGCCCCAGUCGGAUUCUGGUGAAUCUGCGAAUACUGCUGUUUAUCUC [A18G U25C U41A A45G U67A A75U], which self-cleavage is on record?
Answer: 0.04

Question: For UAACAGGGGGCCACAGCGGAAGCGCUCACGUCGCAGCCCUUGUCAGAUUCUGGUGAAUCUGCGAAUUCUGCUGUAUAUCUC [A18G U25C C40U], which self-cleavage is on record?
Answer: 0.05

Question: Which self-cleavage does the source give for UAACAGGGGGCCACAGCGGAAGCGUUCACUUCGCCGCCCCCGUCAGAUUCUGGGGAAUCUGCGAAUUCUGCCGUAUAUCUC [A18G G30U A35C U41C U54G U72C] here?
Answer: 0.09

Question: With UAACAGGGGGCCACAGCGGAAGCGAUCACGUCGCAGCCCUUGUCAGAUUCUGGUGAAUCUGCGAAUUCUGCUGUACAUCUC [A18G U25A C40U U76C] as the variant, how does the self-cleavage read?
Answer: 0.23

Question: Which self-cleavage does the source give for UAACAGGGGGCCACAGCGGAAGCGUUCACGUCACAGCCCCUGUCAGUUUCAGGUGGAUCAGCGAAUUCUGCCGUAUAUCUC [A18G G33A A47U U51A A56G U60A U72C] here?
Answer: 0.18

Question: With UAACAGGGGGCCACAGCGGAAGCGCUCACGACGCAGCCCCUGCCAGAUUCUGGUGAAUCUGCGAAUUCUGCUGUAUAUCUC [A18G U25C U31A U43C] as the variant, how does the self-cleavage read?
Answer: 0.08

Reference: the RNAGym collection of RNA variant scans (doi:10.1093/nar/gkz1192)
